PubChem BioAssay AID1963576 (National Center for Advancing Translational Sciences (NCATS), 2024)
Among all 46,000 compounds or so, about 60 (0.1%) were called active. Another 3% or so got no clear call; they are omitted. The call rests on the fitted dose curve; in most records, active means well fitted inhibition curve with a large enough effect; inconclusive means small, poorly fitted or top-dose-only effect; inactive means no such curve, though single readings can be large or run the other way. The list shows a part of the results.

Test: Primary qHTS assay for Inhibitors of ovarian cancer metastasis using an organotypic tumor microenvironment (TME) model. Further: nearly all actives have a fitted effect of over 65% in size.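 On activity change, negative = inhibition: plate controls were DMSO wells for no effect and tomatine positive control wells for full effect.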
Conditions: SKOV3ip1-GFP adhesion/invasion on 3D omental model, fluorescence; series mostly up to 45.8 µM; activity change, negative = inhibition: at the top concentration
How it was run: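 A 3D layer of primary human omental fibroblasts, mesothelial cells, fibronectin and collagen I, grown 48 hr, received SKOV3ip1-GFP cells in serum-free medium plus compounds at 0.36-46 umol/L. After 2 hr RT and 16 hr 37 C, fixed adherent GFP cells were counted; normalized to DMSO and tomatine.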

Activity change, negative = inhibition, inactive:
CCOC(=O)c1nnc2c(-c3ccc(Cl)cc3)c(C)nn2c1C -5.67%, Cc1ccc(CCNC(=O)CCSCc2ccccc2Cl)cc1 0.662%, CCCn1c2ccccc2c2cnn(CC(=O)NC(CCSC)C(=O)OC)c(=O)c21 (stereo not given) 5.74%, O=C(NCC(c1ccccc1)c1ccccc1)c1nn(-c2ccccc2F)nc1CO -1.37%, CN1CCN(CCC(=O)Nc2ccc(Cl)cc2)CC1 4.7%, CC(C)c1ccc(NC(=O)CCNS(=O)(=O)c2cccc3nsnc23)cc1 28.3%, COc1ccc(OC)c(NS(=O)(=O)c2ccc(Br)s2)c1 -7.77%, O=C(Nc1ncc(SCCN2CCCC2)s1)[C@]1(c2ccc(S(=O)(=O)C3CC3)cc2)C[C@@H]1C1CCCCC1 -4.76%, COC(=O)Nc1nc2ccc(S(=O)c3ccccc3)cc2[nH]1 (stereo not given) -21.9%, CCOc1ccc(NC(=O)c2oc3ccccc3c2NC(=O)Cc2cccc(C)c2)cc1 -5.14%, O=C(COc1ccc(Cl)cc1)NCCc1csc(-c2cccc(F)c2)n1 3.95%, COc1ccc(NC(=O)c2c(C)oc3ccc(O)c(CN4CCOCC4)c23)cc1 -4.27%, Cc1cccc(NC(=O)CSc2nc(=O)n(Cc3cccnc3)c3c2CCC3)c1 1.27%, Cc1ccc(NC(=O)Cn2c(=O)ccc3cc(S(=O)(=O)N4CCC(C)CC4)ccc32)cc1C 10.6%, CC(=O)c1ccc(NC(=O)CSc2nccn2Cc2ccc3c(c2)OCO3)cc1 2.25%, Cn1ncc(C(=O)N2CCN(c3ccccc3F)CC2)c1C1CCN(C(=O)OC(C)(C)C)CC1 -3.01%, COc1ccc(C2N3CC4(C)CN2CC(c2ccccc2)(C3)C4=O)cc1 (stereo not given) 6.33%, Cc1ccc(NC(=O)c2nc(-c3ccncc3)no2)c(Cl)c1 0.763%, O=C(COCc1cc(-c2ccco2)on1)Nc1cccc(Cl)c1Cl 1.58%, Cc1ccc(NC(=O)CSc2nc(-c3ccco3)cc(C(F)(F)F)n2)cc1C -15.3%, COc1ccc(OC)c(CCNC(=O)c2cc3c(=O)n(C)c4ccccc4c3n2C)c1 9.22%, O=C(c1cc(F)cc(F)c1)N1CCC(c2nc(-c3ccc(S(=O)(=O)N4CCCC4)cc3)no2)CC1 -5.35%, CCOc1ccc(NC(=O)CN2CCN(c3ccc(Cl)cc3)CC2)cc1 -12%, COc1ccc(CN(C(=O)Cc2coc3ccc(C)cc23)C2CCS(=O)(=O)C2)cc1 (stereo not given) -1.01%, O=C(Cn1c(=O)nc(-c2ccccc2)c2cc(Cl)ccc21)NCCc1ccccc1 10.9%, COc1cc(Cl)c(C)cc1NC(=O)c1cc2c(s1)-c1c(C)cccc1OC2 -18.5%, COc1cccc(CNC(=O)CCS(=O)(=O)c2ccc3c(c2)CC(C)N3C(=O)C2CC2)c1 (stereo not given) -3.4%, Cc1cc2[nH]c(=O)c(=O)[nH]c2cc1S(=O)(=O)Nc1cccc(C(F)(F)F)c1 -11.1%, Cc1sc2ncn(CC(=O)N3CCN(c4ccc(F)cc4)CC3)c(=O)c2c1S(=O)(=O)N1CCN(c2ncccn2)CC1 -0.353%, CCC(=O)N1CCc2cc(S(=O)(=O)NC(CC(C)C)C(=O)NCc3ccc(C)cc3)ccc21 (stereo not given) -27.4%, CCc1nn(CC(=O)N2CCN(c3cccc(C)c3C)CC2)c(=O)c2cc3sccc3n12 -1.52%, Cc1ccc(OCC(=O)N(Cc2sccc2C)C2CCS(=O)(=O)C2)cc1 (stereo not given) -2.98%, CCCCN(C)C(=O)Cn1cnc2sc(C)c(S(=O)(=O)N3CCN(c4ccccc4OC)CC3)c2c1=O 6.98%, CNC(=O)c1ccc(NC(=O)COc2ccc(-c3nn(C)c(=O)c4ccccc34)cc2)cc1 8.88%, Cc1ccccc1NC(=O)Nc1cccs1 -7.47%, O=C1c2oc3ccccc3c(=O)c2C(c2cccc(Br)c2)N1c1ccccn1 (stereo not given) 14.7%, COc1ccc(-c2noc(CSc3nnc(-c4ccncc4)n3-c3ccc(C)c(C)c3)n2)cc1 7.04%, CCOc1ccc(NC(=O)Cn2c(CCC(=O)O)ccc2-c2ccc(C)cc2)cc1 3.55%, Cc1ccc2onc(CC(=O)N3CCN(c4cccc(C)c4C)CC3)c2c1 -0.797%, Cc1ccc(C)c(CN2C(=O)c3ccccc3Sc3ccc(C(=O)NCc4ccc5c(c4)OCO5)cc32)c1 -34.4%, COc1ccc(Cn2c(CO)cnc2SCC(=O)NCc2ccco2)cc1 -18.3%, Cc1ccccc1C(=O)Nc1cccc(C(=O)OCc2cc(=O)n3nc(C4CC4)sc3n2)c1 23.2%, COc1ccc(-c2nc(Cn3c(SCc4ccc(F)cc4)nc4cccnc43)c(C)o2)cc1 -8.54%, Cc1ccc([N+](=O)[O-])cc1S(=O)(=O)N1CCn2cccc2C1c1ccc(F)c(F)c1 (stereo not given) -20.2%, COc1ccc(NC(=O)c2c(NC(=O)c3cccc(C)c3)sc3c2CCCC3)cc1 1.7%, COc1ccc(N2CCN(C(=O)c3nn(-c4ccc(C)cc4)c(=O)n(C)c3=O)CC2)cc1 -1.8%, Cc1ccc(C)c(Nc2nnc(-c3ccc(C)c(S(=O)(=O)N4CCCCC4)c3)c3ccccc23)c1 -1.28%, Cc1ccc(CSc2nc3c(c(=O)[nH]2)C(c2cccc(F)c2F)CC(=O)N3)cc1 (stereo not given) 7.36%, CCOC(=O)c1cc(-c2ccc(OC)cc2)nn1Cc1ccccc1 -1.54%, COc1ccc(NC(=O)c2sc3nc[nH]c(=O)c3c2C)cc1OC 65.4%, Cc1ccc(OCC(=O)Nc2ccc3nc(SCC(=O)N(C)c4ccccc4)sc3c2)cc1 -2.34%, COc1cc2ncc3c(-c4ccccc4)nn(-c4ccc(C)cc4)c3c2cc1OC 1.97%, CCc1ccccc1Nc1nn2c(=O)c3ccc(C(=O)NCc4ccccc4Cl)cc3nc2s1 -3.46%, N#C/C(=C\c1ccc(-c2ccc(C(=O)O)cc2)o1)c1nc2ccccc2[nH]1 2.63%, CN1CCc2c(sc3c2C(=O)NC(c2ccc(OC(=O)c4ccc(Cl)cc4)cc2)N3)C1 (stereo not given) -20.7%, COc1ccc(CC(=O)NCCc2sc(-c3cccc(F)c3)nc2C)cc1 -1.32%, CCCCOc1ccc(C(=O)N(Cc2nc(-c3ccc(Cl)cc3)no2)C(C)C)cc1 -14.5%, CCCCNC(=O)c1sc2ncccc2c1-n1cccc1 -6.06%, O=C(Nc1ccc(S(=O)(=O)N(Cc2ccccc2)c2ccccc2)cc1)c1ccc(F)cc1 -0.637%, Cc1cccc(NS(=O)(=O)c2ccc3c(c2)CCCN3C(=O)C2CCC2)c1C 1.58%, COc1cc(CNc2ccc3[nH]c(=O)[nH]c3c2)cc(Cl)c1OCc1ccc(F)cc1 -13%, Cc1nn(C(C)(C)C)c(OC(=O)c2c(F)cccc2F)c1Sc1ccccc1 -0.627%, O=C(NCCCc1nc2ccccc2n1Cc1ccccc1F)c1ccco1 0.939%, COC(=O)C(CCSC)NC(=O)c1cc2c(n(-c3ccccc3)c1=O)CC(C)(C)CC2=O (stereo not given) 23.8%, CN1C(=O)c2ccccc2Sc2ccc(NC(=O)c3ccc(C#N)cc3)cc21 4.36%, COc1ccc(-c2cc(C(=O)Nc3c(C)n(C)n(-c4ccccc4)c3=O)no2)cc1 6.78%, Cc1cc2oc(C(=O)Nc3c(C)n(C)n(-c4ccccc4)c3=O)cc(=O)c2cc1C -1.87%, O=C(Cn1cc(S(=O)(=O)Cc2ccccc2F)c2ccccc21)NCc1ccccc1 -5.32%, Cc1csc2nc(-c3cccc(NC(=O)c4c(F)cccc4F)c3)cn12 8.96%

outcome, inactive:
COc1ccc(C(=O)Oc2ccc(C(c3c(C)[nH][nH]c3=O)c3c(C)[nH][nH]c3=O)cc2OC)cc1, CCCN1C(C(=O)c2ccccc2)=C(OC(=O)c2ccc(C)cc2)c2ccccc2S1(=O)=O, Cc1cc(SCC(=O)NCc2ccc(F)cc2)nc(=O)[nH]1, COc1cc(NC(=O)c2ncn(-c3ccccc3)n2)cc(OC)c1, CCOc1ccccc1-n1nnc(S(=O)(=O)c2ccc(C)cc2)c1N, Cc1cc(=O)n2nc(N(C)CC(=O)NCc3ccc(Cl)cc3)sc2n1, CCc1cccc(NC(=O)CCN2C(=O)c3ccccc3Sc3ncccc32)c1, CCOC(=O)c1cccc(NC(=O)C2CCCN(S(=O)(=O)c3cc(Br)cc4c3N(C(=O)CC)CC4)C2)c1 (stereo not given), Clc1ccc(Nc2nc(-c3ccccc3)c3cc(Cl)ccc3n2)cc1, Cc1cc(=O)n2nc(N3CCC(C(=O)NCc4ccc(Cl)cc4)CC3)sc2n1, CCOC(=O)c1[nH]c2ccccc2c1NC(=O)c1cc(OCC)c(OCC)c(OCC)c1, COc1cc(NC(=O)CC(C)S(=O)(=O)c2cc3c4c(c2)CCN4C(=O)CC3)cc(OC)c1 (stereo not given), CC(=O)c1cccc(NC(=O)c2ccc3nc(C(C)C)oc3c2)c1, COc1cc2nc(SCC(=O)Nc3cccc(C)c3)n3nc(-c4ccccc4)nc3c2cc1OC, Cn1nnnc1SCCNCc1ccccc1Cl, COc1cccc(CNC(=O)CN(C)S(=O)(=O)c2ccc3c(c2)c(=O)n(C)c(=O)n3C)c1, CC(C)c1ccc(NC(=O)C(Cc2ccccc2)NS(=O)(=O)c2ccc3c(c2)CCC(=O)N3)cc1 (stereo not given), COc1ccc(Cl)cc1NC(=O)Cn1cc(S(=O)(=O)Cc2cccc(Cl)c2)c2ccccc21, CC(=O)N1CCc2cc(Br)cc(S(=O)(=O)CCC(=O)NCCc3ccc(Cl)cc3)c21, Cn1c(=O)oc2cc(S(=O)(=O)N3CCC(C(=O)N4CCN(c5cccc(Cl)c5)CC4)CC3)ccc21, CCOc1ccc(CCNC(=O)c2ccc(CS(=O)Cc3ccc(Cl)cc3)o2)cc1 (stereo not given), O=C(CCc1ccccc1)N1CCc2c([nH]c3ccccc23)C1c1ccc(F)cc1 (stereo not given), O=C(CCCn1c(=O)c2ccccc2n(Cc2cccc(F)c2)c1=O)NCc1ccccc1Cl, COc1ccc(NC(=O)CN(c2ccc(C)cc2)S(=O)(=O)c2cccs2)cc1, CCOC(=O)Cn1c(=O)n(-c2ccc(Cl)cc2)c2nc(-c3ccc(Cl)cc3)nc(C(N)=O)c21, COc1ccc(CCNc2nc3c(c(=O)n(C)c(=O)n3C)n2Cc2ccccc2Cl)cc1OC
